Inconclusive results, whose numbers are uncertain, are shown with a selection of clear calls. Active and inactive are the calls of the source.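 How the source made its calls, unless noted: active means cell viability at or below a set limit in both duplicate runs, the limit being the all-compound median minus 4 SD (cut at about 23% in these data, passing the limit was not always enough); inconclusive means no clear call, values can overlap the other calls; inactive means the rest.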
Test: H69AR cell proliferation blockers – human, duplicate replicates, primary screen (AID 580;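 active means viability at or under a set limit in both replicates, limit being median viability minus 3 SD, cut at about 48% in these data, passing the limit was not always enough; inconclusive means at or under the limit in just one replicate; inactive means at or above the limit in both replicates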;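 further: 100% = mean luminescence of untreated wells and 0% = no signal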)
Conditions: H69AR lung tumor cells viability, ATP luminescence, 72 h; at 10 µM; active compounds read low

SMILES	viability
Cc1ccc2c(c1)C1CCCC3C1N2CC(=O)N3Cc1ccccc1 (centres undefined)	inactive: 75.5%
O=C(NC1CC1)c1cccc(Nc2ccc(-c3ccc4c(c3)OCCO4)nn2)c1	inconclusive: 49.1%
CCCc1nc2ccccc2c(=O)n1NC(=O)c1c(O)c2cccc3c2n(c1=O)CCC3	inconclusive: 66%
CN(C)c1ccc(C(=O)Nc2nnc(-c3ccc(Cl)cc3)o2)cc1	inconclusive: 47.8%
COc1cc2c(cc1NC(=O)CSc1nnc(Cc3cccs3)n1C)oc1ccccc12	inconclusive: 47.8%
CCOC(=O)CSC1=C(C#N)C(c2ccc(C)o2)CC(=O)N1 (centres undefined)	active: 26.6%
Cc1cc(NC(=O)C2=C(O)c3ccccc3S(=O)(=O)N2C)no1	inactive: 112%
CO[C@H]1C=CO[C@@]2(C)Oc3c(C)c(O)c4c(O)c(c(C=NN5CCN(C)CC5)c(O)c4c3C2=O)NC(=O)C(C)=CC=C[C@H](C)[C@H](O)[C@@H](C)[C@@H](O)[C@@H](C)[C@H](OC(C)=O)[C@@H]1C	inactive: 88.9%
CCOC(=O)c1oc2ccccc2c1NC(=O)c1cccc(OC)c1OC	inconclusive: 19.6%
COc1cccc(Cn2c(-c3nonc3N)nc3ccccc32)c1	inconclusive: 16%
CCn1cc(C(=O)NCc2ccco2)c(=O)c2cc(F)c(N3CCN(C(=O)c4ccco4)CC3)cc21	inactive: 58.6%
Cc1cc(C)c2c(=O)n(CC(=O)NCCCN3CCOCC3)sc2n1	inconclusive: 39.8%
CCOC(=O)c1ccc(N=c2sc(C(=O)OC)cc(=O)n2Cc2ccco2)cc1	active: 1.51%
COc1cc(C(=O)N2CCN(c3cc(Cl)ccc3Cl)CC2)cc(OC)c1OC	active: 29.8%
COC(=O)c1cc(=O)n(Cc2ccc3c(c2)OCO3)c(=Nc2ccccc2)s1	inconclusive: 38.1%
CCn1c2ccccc2c2cc(Nc3cc(C)nc4ncnn34)ccc21	active: 29.4%
Cc1cc(C)c2ccc(N)nc2c1O	active: 21.4%
O=C(OCC(=O)c1ccc[nH]1)c1ccc(S(=O)(=O)N2CCCCC2)cc1	inactive: 97.8%
Cc1ccccc1Cc1c(C)nc2c(C(=O)N3CCN(Cc4ccc5c(c4)OCO5)CC3)cnn2c1C	inactive: 79%
COC(=O)c1[nH]c2c(c1C)C(=O)CC(c1cc(OC)ccc1OC)C2 (centres undefined)	active: 14.9%

Test: MRP1 drug-resistance reversers in H69AR cells – cell-based, doxorubicin co-treatment, pilot screen (AID 601;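 active means viability loss from added drug above about 55%, and viability with drug at most 40%, in both replicates, limit read from the data, passing the limit was not always enough; inconclusive means both conditions met in only one replicate; inactive means neither replicate meets both conditions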)
Conditions: H69AR cells + 2 uM doxorubicin, CellTiter-Glo, 72 h; at 10 µM; active compounds read high

SMILES	differential viability (reversal)
O=C(NC1CC1)c1cccc(Nc2ccc(-c3ccc4c(c3)OCCO4)nn2)c1	inactive: -12%
CO[C@H]1C=CO[C@@]2(C)Oc3c(C)c(O)c4c(O)c(c(C=NN5CCN(C)CC5)c(O)c4c3C2=O)NC(=O)C(C)=CC=C[C@H](C)[C@H](O)[C@@H](C)[C@@H](O)[C@@H](C)[C@H](OC(C)=O)[C@@H]1C	inactive: 1.53%
Cc1cc(C)c2ccc(N)nc2c1O	inactive: -7.52%
CS(=O)(=O)N(Cc1nc2sc3c(c2c(=O)[nH]1)CCCC3)C1CCCCC1	inactive: 1.24%

Test: S. cerevisiae growth inhibition in restrictive medium, OD615, pilot screen, restrictive growth control, yeast lifespan reduction project (AID 706;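 active means growth inhibition above a set limit, 3 SD over mean compound inhibition, in both replicates, cut at about 43% in these data; inconclusive means above the limit in only one replicate; inactive means at or below the limit in both replicates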;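 further: modified DeaD lifespan yeast strain shifted to restrictive glucose medium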)
Conditions: OD615, 48 h, at 10 µM, active compounds read high
How it was run: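 Assay system: engineered S. cerevisiae DeaD strain; Buffer or medium: CSMM-D glucose medium; Dosing: 10 µM compound, 0.25% DMSO; Times: cell pre-growth 4 h, compound exposure 48 h, 30 °C; Detection: absorbance (optical density) measured at 615 nm.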

SMILES	growth inhibition
O=C(/C=C/N1CCOCC1)c1ccc(-c2ccccc2)cc1	active: 100%
COC(=O)CSC1=NS(=O)(=O)c2ccccc21	active: 98.3%
COC(=O)c1cc(=O)n(Cc2ccc3c(c2)OCO3)c(=Nc2ccccc2)s1	inactive: -1%
CCn1c2ccccc2c2cc(Nc3cc(C)nc4ncnn34)ccc21	active: 72.4%

Test: viability of HCT116 without oncogenic beta-catenin – human colon tumor cells, pilot screen (AID 823);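 further: 0% = wells killed by 20 µM Hyamine and 100% = untreated DMSO cell wells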
Conditions: HCT116 beta-catenin knockout viability, CellTiter-Glo, 60 h; at 10 µM; active compounds read low

SMILES	viability
Cc1ccc2c(c1)C1CCCC3C1N2CC(=O)N3Cc1ccccc1 (centres undefined)	inconclusive: 35.7%
Cc1ccccc1-c1nc(CN2CCC(C(=O)NC3CCN(Cc4ccccc4)CC3)CC2)c(C)o1	active: 6.4%
Cc1ccc(C)c(N2CCN(CCCNC(=O)Cn3cc4c(n3)CCC(C)C4)CC2)c1 (centres undefined)	active: 1.61%
CCOC(=O)CSC1=C(C#N)C(c2ccc(C)o2)CC(=O)N1 (centres undefined)	active: 13.7%
Cc1ccc(-c2oc3ccccc3c(=O)c2O)cc1	active: 10.2%
CCOC(=O)CCCOC(=O)c1ccc(S(=O)(=O)N(C)C)cc1	inconclusive: 106%
COC(=O)CSC1=NS(=O)(=O)c2ccccc21	inactive: 99.4%
Cc1cc(C)c2c(=O)n(CC(=O)NCCCN3CCOCC3)sc2n1	inconclusive: 35.6%
CCOC(=O)c1ccc(N=c2sc(C(=O)OC)cc(=O)n2Cc2ccco2)cc1	active: 5.04%
COc1cc(C(=O)N2CCN(c3cc(Cl)ccc3Cl)CC2)cc(OC)c1OC	inconclusive: 18.7%
CCOC(=O)N1CCC(c2cc(=O)n3[nH]c(C)c(-c4ccc(F)cc4)c3n2)CC1	active: 15.8%
COC(=O)c1cc(=O)n(Cc2ccc3c(c2)OCO3)c(=Nc2ccccc2)s1	inactive: 71.1%
CCn1c2ccccc2c2cc(Nc3cc(C)nc4ncnn34)ccc21	inconclusive: 20.4%
O=C(CCNS(=O)(=O)c1cccc2nsnc12)Nc1ccc2c(c1)OCCO2	inconclusive: 94.7%
Cc1ccc(C2c3c(oc4ccccc4c3=O)C(=O)N2c2nnc(C(C)C)s2)o1 (centres undefined)	inactive: 104%
Cc1oc(-c2cccc(Cl)c2)nc1CN1CCC(C(=O)N2CCN(c3ccccc3F)CC2)CC1	active: 17.2%
COc1cccc(CNC(=O)CCS(=O)(=O)c2cccc3nsnc23)c1	inconclusive: 106%
Cc1cc(C)c2c(=O)n(CC(=O)NCCCN3CCN(c4ccccc4F)CC3)sc2n1	active: 3.95%
C/C=C/COC(=O)c1[nH]c2c(c1C)C(=O)CC(c1ccco1)C2 (centres undefined)	active: 16.6%
COC(=O)c1[nH]c2c(c1C)C(=O)CC(c1cc(OC)ccc1OC)C2 (centres undefined)	inactive: 34.6%
Cc1c(C(=O)OCc2ccccc2)[nH]c2c1C(=O)CC(c1ccco1)C2 (centres undefined)	active: 16.3%
